Among all 310,000 compounds or so, about 18,000 (5.8%) were called active. The inconclusive results got no clear call from the source; some entries with a clear call stand among them for comparison. Calls follow the shape of the dose curve; as a rule, active = well fitted inhibition curve with a large enough effect; inconclusive = small, poorly fitted or top-dose-only effect, or another doubt; inactive = no such curve, though single readings can be large or run the other way. Potencies of inconclusive entries are left out as doubtful fits.
Assay: Primary qHTS for delayed death inhibitors of the malarial parasite plastid, 48 hour incubation
Conditions: P. falciparum luciferase growth in erythrocytes; series mostly up to 28.7 µM
In short: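 Parasite viability was followed by luminescence of a genomically integrated firefly luciferase. Cultures held 0.1% parasitemia at 2% hematocrit (final), incubated under 5% CO2 at 37 C.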
With CCOc1ccccc1N(CC(=O)Nc1cccnc1)S(=O)(=O)c1ccc(C)cc1 the Potency was inconclusive [inhibitor, single point]. In the case of COc1cc(C(=O)NCc2cccc3ccccc23)ccc1OCc1ccccc1, the Potency is reported as inconclusive [inhibitor, partial curve, poor fit]. In the case of C=CCOc1ccc(C2/C(=C(\O)c3ccc4c(c3)OCCO4)C(=O)C(=O)N2CCCN2CCOCC2)cc1 (stereo not drawn), the Potency is reported as “inactive”. For COc1ccc(CC(=O)Nc2cccc(-c3nnc(-c4ccc(C)cc4)o3)c2)cc1OC, the Potency was inconclusive [inhibitor, single point]. With O=[N+]([O-])c1ccc(OCC(O)CNCCNc2nccc(C(F)(F)F)n2)cc1 (stereo not drawn) the Potency was inconclusive [inhibitor, partial curve]. With O=C(c1cc(C2CC2)nn1-c1ccccc1)N1CCN(S(=O)(=O)c2c(F)cccc2F)CC1 the Potency was active: 7.38 µM. With Cc1csc(SC(C)C(=O)NC2CCCCC2C)n1 (stereo not drawn) the Potency was inconclusive [inhibitor, single point]. With Cc1c(C(=O)Nc2c(F)cccc2F)sc2ncnc(N3CCN(c4ccccc4)CC3)c12 the Potency was inconclusive [inhibitor, partial curve, poor fit]. For Cc1occc1C(=O)N1CCCC(CCC(=O)NCc2ccc(F)c(F)c2)C1 (stereo not drawn), the Potency was inconclusive [inhibitor, single point]. In the case of O=C(N/N=C/c1ccc([N+](=O)[O-])o1)c1cc(-c2cccc(Br)c2)nc2ccccc12, the Potency is reported as inconclusive [inhibitor, full curve, poor fit]. In the case of O=C(O)CCCCCN1C(=O)/C(=C\c2cn(-c3ccccc3)nc2-c2cccs2)SC1=S, the Potency is reported as inconclusive [inhibitor, single point]. With COc1ccccc1OCC(=O)Nc1ccc2c(c1)OCO2 the Potency was “inactive”. In the case of Cc1ccc(O)c(NC(=O)/C=C/C(=O)O)c1, the Potency is reported as inconclusive [inhibitor, single point]. For COc1cccc(N(C(=O)CCl)C(C(=O)NCCc2ccccc2)c2cccs2)c1 (stereo not drawn), the Potency was active: 11.7 µM. For CCOC(=O)C1=C(c2ccccc2)N=c2s/c(=C\c3ccco3)c(=O)n2C1c1cccs1 (stereo not drawn), the Potency was “inactive”. For CN1C[C@@H]2C(c3ccc(Cl)nc3)C3(c4ccccc4)CC2(C3)[C@H]1c1ccccc1 (stereo partly drawn), the Potency was active: 9.28 µM. In the case of CN(C)S(=O)(=O)c1cccc(NC(=S)N/N=C/c2ccco2)c1, the Potency is reported as active: 3.7 µM. In the case of CCCCOC(=O)C(C)c1c(C)[nH]c(=S)[nH]c1=O (stereo not drawn), the Potency is reported as inconclusive [inhibitor, full curve, poor fit]. In the case of COc1ccc(NC(=O)c2cc(-c3ccccn3)nc3c(C)cc(C)cc23)c(C)c1, the Potency is reported as inconclusive [inhibitor, single point]. In the case of CCN(Cc1ccccc1)C(c1ccccn1)c1nnnn1C(C)(C)CC (stereo not drawn), the Potency is reported as inconclusive [inhibitor, single point]. In the case of CN1CCN(Cc2nc3c(c(=O)n(C)c(=O)n3C)n2Cc2cccc3ccccc23)CC1, the Potency is reported as inconclusive [inhibitor, single point]. With O=c1c(C(c2ccc(O)cc2)c2c(O)nc3n(c2=O)CCCS3)c(O)nc2n1CCCS2 the Potency was active: 2.94 µM. In the case of CC(NC(=O)c1cnc2n(c1=O)CCS2)c1ccccc1 (stereo not drawn), the Potency is reported as “inactive”. With CC(=O)N1c2c(cc(Br)cc2S(=O)(=O)N2CCN(c3ccccn3)CC2)CC1C (stereo not drawn) the Potency was inconclusive [inhibitor, partial curve, poor fit]. In the case of Cc1cnc(NC(=O)C2CCCO2)s1 (stereo not drawn), the Potency is reported as “inactive”. For CCC(C)c1ccc(NC(=O)Nc2cccnc2)cc1 (stereo not drawn), the Potency was inconclusive [inhibitor, single point]. In the case of O=C(NCc1ccc2c(c1)OCO2)c1ccc(CN2CCc3ccccc3C2)cc1, the Potency is reported as inconclusive [inhibitor, partial curve, poor fit]. With COc1ccc(S(=O)(=O)N2CCOCC2)cc1NC(=O)COc1ccccc1OC the Potency was “inactive”. With Cc1ccc(Oc2cc(C)nc(-c3ccccc3O)n2)cc1 the Potency was “inactive”. In the case of COc1cc2c(cc1OC)-c1nnc(C)n1C1(CCCC1)C2, the Potency is reported as “inactive”. For CCN1CCCc2cc(CN(CCN3CCOCC3)C(=S)Nc3cccc(OC)c3)ccc21, the Potency was inconclusive [inhibitor, partial curve, poor fit]. In the case of COc1cccc(F)c1C(C[N+](=O)[O-])c1c(N)n(C)c(=O)n(C)c1=O (stereo not drawn), the Potency is reported as inconclusive [inhibitor, full curve]. In the case of CNc1c(NS(=O)(=O)c2ccc(C3CCCCC3)cc2)c(=O)oc2ccccc12, the Potency is reported as “inactive”. With COc1ccc(S(=O)(=O)NCC2CCCN(C(=O)CSC)C2)cc1 (stereo not drawn) the Potency was “inactive”. For O=C(NCC1CCN(Cc2ccccc2F)CC1)C1CCCN(c2ncnc3c2nc2n3CCCCC2)C1 (stereo not drawn), the Potency was inconclusive [inhibitor, partial curve]. In the case of O=C(c1ccco1)N1CCC(c2nc3c(nnn3Cc3ccc(F)cc3)c(=O)[nH]2)CC1, the Potency is reported as inconclusive [inhibitor, partial curve]. For Cc1cc(C)c(C)c(S(=O)(=O)Nc2ccccc2C(=O)NCCCN2CCOCC2)c1C, the Potency was inconclusive [inhibitor, single point]. For O=C(CSc1ncc(-c2ccc(F)cc2)[nH]1)Nc1cccc(O)c1, the Potency was “inactive”. With Cc1ccccc1C(=O)NCCCNC(=O)c1cnccn1 the Potency was “inactive”. With Cc1cccc(/C=c2\s/c(=C\C(=O)C(C)(C)C)[nH]c2=O)c1 the Potency was inconclusive [inhibitor, partial curve, poor fit]. For Cc1nc(C)c(-c2csc(Nc3ccc(O)cc3C)n2)s1, the Potency was inconclusive [inhibitor, partial curve, poor fit]. For Oc1ccc(N=Nc2cccc(Cl)c2)cc1C=Nc1ccc(N2CCOCC2)cc1, the Potency was inconclusive [inhibitor, full curve]. For Cc1cc(-c2ccccc2)nc2[nH]n(-c3ccccc3)c(=O)c12, the Potency was “inactive”. In the case of CCOc1ccc(Nc2ncnc3ccc([N+](=O)[O-])cc23)cc1, the Potency is reported as inconclusive [inhibitor, single point]. For COc1ccc(-c2nc(CS(=O)CC(=O)NC3CCCC(C)C3C)c(C)o2)cc1OC (stereo not drawn), the Potency was “inactive”. In the case of COc1cc(NC(=O)COc2cc(O)c3c(c2)OC(C)(C)CC3=O)cc(OC)c1OC, the Potency is reported as inconclusive [inhibitor, partial curve]. With CCOC(=O)c1[nH]c2ccccc2c1NC(=O)CCN1CCN(C(=O)OCC)CC1 the Potency was inconclusive [inhibitor, partial curve, poor fit]. In the case of CCCCC(=O)N(Cc1ccc(-c2ccccc2-c2nn[nH]n2)cc1)C(C(=O)O)C(C)C (stereo not drawn), the Potency is reported as active: 15.1 µM. For Cc1ccc(C(=O)N2CCC(N3CCC(C(=O)N4CCOCC4)CC3)CC2)cc1C, the Potency was inconclusive [inhibitor, single point]. In the case of Cn1cccc1Cc1nnc(SCC(=O)Nc2ccc3c(c2)OCO3)n1CCc1ccccc1, the Potency is reported as inconclusive [inhibitor, single point]. In the case of Cc1nn(Cc2ccccc2)c(C)c1NC(=O)CSc1n[nH]c(C)c1[N+](=O)[O-], the Potency is reported as inconclusive [inhibitor, single point]. In the case of CC(C)N1CN(c2ccccc2)C(=S)N(c2ccccc2)C1, the Potency is reported as “inactive”. With COc1cccc(NC(=S)N(CCCN2CCOCC2)Cc2cn(C)c3ccccc23)c1 the Potency was “inactive”. With COc1cc(NC(=O)CSCC(=O)N(C)C2CCCCC2)cc(OC)c1 the Potency was inconclusive [inhibitor, single point]. With CCN(CC(=O)NCc1ccccn1)S(=O)(=O)c1cc(Cl)ccc1Cl the Potency was inconclusive [inhibitor, partial curve, poor fit]. For O=C(CSc1ncnc2c1nnn2Cc1ccccc1)NC1CCCCC1, the Potency was “inactive”. With CC1(C)CC(=O)C2=C(C1)OC(/N=C/N1CCOCC1)=C(C#N)C2c1ccccc1 (stereo not drawn) the Potency was inconclusive [inhibitor, partial curve, poor fit]. For C=CCn1cc(C(=O)NCCOC)c(=O)c2cc(S(=O)(=O)N3CCCCCC3)ccc21, the Potency was inconclusive [inhibitor, partial curve]. In the case of CC(=O)Nc1nc(C)c(Oc2cccc(C(F)(F)F)c2)c(=O)[nH]1, the Potency is reported as inconclusive [inhibitor, partial curve]. In the case of COc1ccc(-c2oc3ccccc3c2C#CC(C)(C)O)cc1, the Potency is reported as inconclusive [inhibitor, single point]. For O=C(CCN1C(=O)C2CC=CCC2C1=O)Nc1nc(-c2ccc(F)c(F)c2)cs1 (stereo not drawn), the Potency was inconclusive [inhibitor, single point]. In the case of CCCOc1cccc(-c2cc(C(=O)N/N=C/c3cccnc3)c3ccccc3n2)c1, the Potency is reported as inconclusive [inhibitor, single point]. In the case of CCC(=O)Nc1cc(-c2nn(C)c(=O)c3ccccc23)ccc1OC, the Potency is reported as “inactive”. With COc1cc2nc(Cl)nc(N3CCCCC3)c2cc1OC the Potency was inconclusive [inhibitor, partial curve]. In the case of O=C(N[C@@H](Cc1c[nH]c2ccccc12)C(=O)O)OCC1c2ccccc2-c2ccccc21, the Potency is reported as “inactive”. For CCOC(=O)C1=C(c2ccccc2)NC(SCC(=O)Nc2ccccc2C)=C(C#N)C1c1ccco1 (stereo not drawn), the Potency was active: 8.28 µM. For CC(C)(C)OC(=O)N[C@@H](Cc1ccccc1)C(=O)NCC1CCC(C(=O)O)CC1 (stereo partly drawn), the Potency was “inactive”. With CCC(CC)NC(=O)CSc1nnc(-c2c[nH]c3ccccc23)o1 the Potency was inconclusive [inhibitor, full curve, poor fit].
Potency is read from the fitted curve at half-maximal effect; tags tell the direction and shape of the fitted curve.
